Measurements taken from PubChem BioAssay AID1346428 (National Center for Advancing Translational Sciences (NCATS), 2018).
Among all 48,000 compounds or so, about 1,200 (2.5%) were called active. Not shown: some 2% with an inconclusive outcome.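 Rule for the calls: active = activation of at least 60% and not above a set upper limit (about 1 call in 100 departs from these limits); inconclusive = activation of 40% to 60%, or above that upper limit; inactive = activation under 40%.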 The list shows a part of the results.

Target: Probable G-protein coupled receptor 32 (Homo sapiens) (UniProt O75388)
Experiment: qHTS for Agonists of Human Resolvin D1 Receptor DRV1
Settings: CHO-K1 GPR32 beta-arrestin PathHunter luminescence, 90 min; at 76.9 µM; stronger effect = higher value; zero percent set by DMSO-only wells
Method in brief: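 Using DMSO wells as EC0, agonist-induced signal was taken as chemiluminescence from beta-Gal reconstituted upon beta-arrestin recruitment to GPR32 in CHO-K1 cells after 90 min compound treatment.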

UniProt O75388, sequence (O75388 whole entry, looked up): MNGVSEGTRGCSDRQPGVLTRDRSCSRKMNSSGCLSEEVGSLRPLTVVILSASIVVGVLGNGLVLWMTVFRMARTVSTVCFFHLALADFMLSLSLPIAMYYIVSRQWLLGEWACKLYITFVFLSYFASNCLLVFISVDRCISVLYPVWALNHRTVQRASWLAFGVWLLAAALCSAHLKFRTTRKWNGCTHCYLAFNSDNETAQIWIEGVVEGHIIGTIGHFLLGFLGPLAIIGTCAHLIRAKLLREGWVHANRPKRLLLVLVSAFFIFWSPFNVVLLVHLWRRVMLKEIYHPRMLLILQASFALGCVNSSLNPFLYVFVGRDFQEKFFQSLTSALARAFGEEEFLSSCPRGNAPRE

Row | Structure (SMILES) | activation
1 | CC(NC(=O)CCCn1c(=O)c2cccn2c2cccnc21)c1ccccc1 (configuration not stated) | inactive: -10.7%
2 | CCOc1ccc(-c2nc(C#N)c(NCCCOC)o2)cc1 | inactive: -22.7%
3 | O=C1C(=O)N(C2CCN(S(=O)(=O)c3ccc(F)cc3)CC2)CCN1Cc1ccccc1 | inactive: 15.8%
4 | CCOC(=O)c1cccc(NC(=O)CN2C(=O)CC(C)(C)Sc3ccccc32)c1 | inactive: -10.5%
5 | CCN(C(=O)c1oc2ccc(S(=O)(=O)N3CCCCCC3)cc2c1C)c1ccccc1 | inactive: -6.58%
6 | Cc1ccc(-n2ncc(C(=O)NCCN3CCc4ccccc4C3)c2C2CCN(C(=O)OC(C)(C)C)CC2)cc1 | inactive: -37.3%
7 | COc1ccc(CCNC(=O)CCCn2c(=O)c3ccccc3n(Cc3ccccc3C)c2=O)cc1OC | inactive: -4.73%
8 | Cc1cccc(C)c1OCc1nc2c3cnn(-c4cccc(F)c4)c3ncn2n1 | inactive: 11%
9 | CCOC(=O)c1cc(S(=O)(=O)N2CCN(c3ccc(OC)cc3)CC2)[nH]n1 | inactive: -15.7%
10 | Cc1ccc(C(=O)Nc2c(C(=O)NCc3ccc(Cl)cc3)sc3nc(C)cc(C)c23)cc1 | inactive: -18.9%
11 | Cc1ccc(Nc2c(-c3ccc(N4CCOCC4)cc3)nc3ncccn23)cc1 | inactive: -18.7%
12 | CCN1CCN(c2cc3c(cc2F)c(=O)c(C(=O)O)cn3C2CC2)CC1 | inactive: -4.45%
13 | COc1cc(C2CC(=O)c3c([nH]c(C(=O)OC4CCCCC4)c3C)C2)cc(OC)c1OC (configuration not stated) | inactive: 31.2%
14 | Cc1ccc(CNC(=O)c2c3c(nc4ccccc24)C(=O)N(C2CCCCC2)C3)cc1 | inactive: -14.5%
15 | CCCCn1c2ccc(F)cc2c2nnc(SCCN(CC)CC)nc21 | inactive: 7.93%
16 | COc1cccc(NC(=O)CSc2nc3ccccc3nc2N2CCOCC2)c1 | inactive: -34.6%
17 | CCc1ccc(CN2C(=O)c3ccccc3C2C(=O)NCCc2ccc(OC)c(OC)c2)cc1 (configuration not stated) | inactive: -10.8%
18 | Cc1csc2nc(COC(=O)c3ccccc3NC(=O)c3ccc(F)cc3)cc(=O)n12 | inactive: -7.27%
19 | COc1ccc(Cl)cc1NC(=O)CSc1nccn1Cc1ccco1 | inactive: -8.69%
20 | Cc1ccccc1NC(=O)c1sc2nc3c(cc2c1N)CCCC3 | inactive: -17.8%
21 | CCOc1cc2[nH]c(=O)n(Cc3ccc(C(=O)NCCN(CC)CC)cc3)c(=O)c2cc1OCC | inactive: -8.14%

Row | Structure (SMILES) | activation
22 | Cc1ccc(C)c(N2CCN(C(=O)c3ccc(CS(=O)(=O)c4ccc(Br)cc4)o3)CC2)c1 | inactive: -4.48%
23 | COc1ccc(CC(=O)NCc2nc3cccnc3n2Cc2ccc(F)cc2)cc1OC | inactive: -10.4%
24 | COc1ccc(NC(=O)c2cc3c(=O)[nH]c4ccccc4c3n2C)cc1Cl | inactive: 18.2%
25 | CCCN(C(=O)CCc1nc(-c2ccccc2F)no1)c1ccc(CC)cc1 | inactive: -14.7%
26 | COc1ccc(CNC(=O)Cn2c(SCC(=O)Nc3ccc(C)c(C)c3)nc3ccccc32)cc1 | inactive: -25.5%
27 | CSc1nc2sc3c(c2c(=O)n1-c1ccc(F)c(Cl)c1)CCN(C(C)=O)C3 | inactive: -25.5%
28 | Cc1cc(C)cc(NC(=O)CSc2nc(-c3cccc(Cl)c3)nc3c2Cc2c(CO)cnc(C)c2O3)c1 | inactive: 21.4%
29 | CCOc1ccc(-c2nc(SCC(=O)NCCOC)c(-c3ccc(OC)c(OC)c3)[nH]2)cc1 | inactive: -18.5%
30 | CCc1ccc(-n2nc(C)c3c(C(=O)Nc4cc(OC)cc(OC)c4)cc(C)nc32)cc1 | inactive: -20.9%
31 | CCOC(=O)NC1(C(F)(F)F)NC(=O)N(c2ccc(C)c(C)c2)C1=O (configuration not stated) | inactive: -6.64%
32 | O=C(CSC1=Nc2ccccc2C2=NC(Cc3ccccc3)C(=O)N12)Nc1ccccc1F (configuration not stated) | inactive: -18.6%
33 | Cc1cc(C)cc(OCC(=O)Nc2ccc(S(=O)(=O)Nc3onc(C)c3C)cc2)c1 | inactive: 4.51%
34 | COc1ccc(S(=O)(=O)NCCc2csc(-c3ccc(F)cc3)n2)cc1 | active: 60.3%
35 | COc1ccc(-n2nc(C(=O)Nc3cccc(C(F)(F)F)c3)c3c4ccccc4n(C)c3c2=O)cc1 | inactive: -3.76%
36 | Cc1nc(CC(=O)Nc2ccc(N(C)C)cc2)cs1 | inactive: -16.9%
37 | Cc1nn(CC(=O)NCc2ccccc2Cl)c(=O)c2nn(-c3ccccc3)c(C)c12 | inactive: 5.25%
38 | CCN1CCC[C@H]1CNC(=O)c1c(OC)ccc(Br)c1OC | inactive: 4.71%
39 | Cc1ccccc1NC(=O)CSC1=Nc2ccccc2C2=NC(CCC(=O)NCc3ccccc3)C(=O)N12 (configuration not stated) | inactive: -7.73%
40 | CCN(CC)C(=O)c1sc2c(c1C)c(=O)n(-c1ccc(Cl)c(Cl)c1)c(=O)n2Cc1cc(=O)n2c(C)cccc2n1 | inactive: 1.39%
41 | COC(=O)CN1C(=O)CSc2ccc(S(=O)(=O)N3CCOCC3)cc21 | inactive: -1.43%
42 | COC(=O)c1sccc1S(=O)(=O)N(CC(=O)NCc1ccc(C)cc1)c1ccc(Cl)cc1 | inactive: -9.25%

Row | Structure (SMILES) | activation
43 | COc1ccc(C(=O)Nc2ccc3nc(SCC(=O)N4CCCc5ccccc54)sc3c2)cc1 | inactive: -14%
44 | Cc1cc(C)cc(N2C(=O)N(CC(=O)c3ccc(Br)cc3)c3ccccc3S2(=O)=O)c1 | inactive: -31.8%
45 | COc1ccccc1CNC(=O)CN1C(=O)COc2ccc(S(=O)(=O)N3CCCCC3)cc21 | inactive: -24.7%
46 | O=S(=O)(NCc1cccc(Br)c1)c1ccc(-c2cc(C(F)(F)F)on2)s1 | inactive: -8.96%
47 | Cc1ccc(-c2nc(C)c(CCNS(=O)(=O)c3ccccc3F)s2)cc1 | inactive: 48.2%
48 | CCCCn1cc(S(=O)(=O)c2ccc(OC)cc2)c(=O)c2cc(F)c(N3CCCC3)cc21 | inactive: -5.65%
49 | COc1cc(NS(C)(=O)=O)ccc1Nc1c2ccccc2nc2ccccc12 | inactive: 5.29%
50 | CCOc1ccc(NC(=O)Cn2cc(C(=O)c3ccc(C)c(C)c3)c(=O)c3cc4c(cc32)OCCO4)cc1 | inactive: 22.9%
51 | CN1C(=O)C(C)(C)c2cc(S(=O)(=O)NCc3ccc(C(=O)Nc4ccc(Cl)cc4)cc3)ccc21 | inactive: 12.6%
52 | Cc1cccc(NC(=O)N2CCC(CN3CCc4ccccc4C3)CC2)c1C | inactive: -17%
53 | COc1ccc(CNC(=O)c2cc3ccccn3n2)c(OC)c1 | inactive: -1.55%
54 | CCCCN(CC)C(=O)Cn1c(=O)n(-c2ccc(OCC)cc2)c(=O)c2c3c(sc21)CCC3 | inactive: -12.3%
55 | Cn1nc(C(=O)N2CCN(c3ccccc3)CC2)c2c1-c1ccccc1SC2 | inactive: 3.14%
56 | CCCCOc1ccc(CNC(=O)Cn2ncn3c(cc4cc(F)ccc43)c2=O)cc1 | inactive: -0.392%
57 | O=C(c1ccc2c(c1)OCO2)c1cn(Cc2ccc(F)cc2)c2ccccc2c1=O | inactive: -3.76%
58 | Cc1ccc(C2CCN(C(=O)c3cnn(-c4ccccc4Cl)c3C3CCN(C(=O)OC(C)(C)C)CC3)C2)cc1 (configuration not stated) | inactive: -31.3%
59 | COc1cc(OC)c(C2C=C(C(=O)O)Nc3ncnn32)cc1OC (configuration not stated) | inactive: 20.8%
60 | CCCOC(=O)c1c(NC(=O)c2nc3ncccn3n2)sc(C(=O)OCC)c1C | inactive: 17.3%
61 | CC(=O)c1cccc(-n2c(=O)c3c4c(sc3n(Cc3ccccc3Cl)c2=O)CN(C(C)=O)CC4)c1 | inactive: 1.85%
62 | COc1ccccc1CNC(=O)c1cn(C)c2ccc(S(=O)(=O)N3CCC(C)CC3)cc2c1=O | inactive: 7.3%
63 | Cc1c(F)cccc1NC(=O)C1CCCN1S(=O)(=O)c1ccc(F)cc1 (configuration not stated) | inactive: 2.92%

Row | Structure (SMILES) | activation
64 | Cc1ccc2[nH]cc(C(c3ccccc3)c3cccs3)c2c1 (configuration not stated) | inactive: 10.6%
65 | COc1cc(OC)c(NC(=O)c2ccc3nc(C(C)C)oc3c2)cc1Cl | inactive: -7.31%
66 | Cc1ccc(C(=O)Nc2cccc(C(=O)OCc3cc(=O)n4c5c(sc4n3)CCCC5)c2)cc1 | inactive: -20%
67 | Cc1ccc(NC(=O)C2CCCN(S(=O)(=O)c3cccc4cccnc34)C2)cc1Cl (configuration not stated) | inactive: -12.7%
68 | CNS(=O)(=O)c1cn(CC(=O)Nc2ccc(F)cc2F)cc1S(=O)(=O)NC | inactive: -8.42%
69 | Cc1ccc(N2CC(c3nnc(Cc4ccc(Cl)cc4)o3)CC2=O)cc1 (configuration not stated) | inactive: -8.43%
70 | CCCCNc1sc(S(=O)(=O)CC)nc1S(=O)(=O)c1ccc(C)cc1 | inactive: -14.1%
71 | CCc1ccccc1NC(=O)CSc1nnc(-c2cc(OC)c(OC)c(OC)c2)o1 | inactive: 8.57%
72 | CC(=O)Nc1cc(C(=O)NCc2ccccc2)ccc1Sc1ccc(C)cc1 | inactive: -3.2%
73 | Cc1cccc(N2CCN(C(=O)Cn3c(=O)c4cccn4c4ccc(F)cc43)CC2C)c1 (configuration not stated) | inactive: -37.3%
74 | CCN(c1ccc(OC)cc1)S(=O)(=O)c1c(C(=O)N2CCCCCC2)c(C)n(C)c1C | inactive: -14.5%
75 | Cc1cccc(C(=O)Nc2ccc(-c3nc4ccccc4s3)c(C)c2)c1 | inactive: 11.8%
76 | Cc1ccc(CNC(=O)C(C(C)C)N2Cc3ccccc3C2=O)cc1 (configuration not stated) | inactive: -7.72%
77 | O=C(NC1CCCCC1)c1ccc(Cn2c(SCc3cccc(F)c3)nc3cccnc32)cc1 | inactive: -23.3%
78 | CN(C(=O)CSc1cn(CC(=O)N2CCCCCC2)c2ccccc12)c1ccccc1 | inactive: -12.9%
79 | O=C(CCc1nc(-c2ccccc2F)no1)Nc1cccc(C(F)(F)F)c1 | inactive: 23.4%
80 | Cc1ccc(CC(=O)N(Cc2nc(-c3ccc(C)cc3)no2)C(C)C)cc1 | inactive: 23.6%
81 | Cc1ccc(C)c(N2CCN(C(=O)c3cccc(-n4c(C)nc5cccnc54)c3)CC2)c1 | inactive: 37.2%
82 | Cc1nn(-c2ccccc2)c(OC(=O)c2ccc(Br)cc2)c1S(=O)(=O)c1ccccc1 | inactive: -1.84%
